Biological target: T1, Ubc9 (SUMO E2 conjugating enzyme) (UniProt P63279)
T1 construct: Ubc9, the SUMO conjugating enzyme E2; 15N-labelled in the reverse NMR titration; source: purified
Test: ITC; SUMO1 in the cell (wt 12 uM, M82I 7 uM), Ubc9 365 uM in the syringe; 25 mM Tris pH 8.0, 2 mM BME; 298 K; GE ITC200
Conditions: both partners purified

B1: wild-type human SUMO1 (Small Ubiquitin-like Modifier 1) (natural protein)
chain: not shown
notes: human wild-type SUMO1, 6xHis tagged, in pQE-80L; Uniformly 15N- (or 13C/15N-) labelled for the NMR titrations in which SUMO1 is observed, unlabelled otherwise; As it is active in SUMOylation it is probably the mature form (surmise); also called wt-SUMO1; Wt-SUMO1; source: E. coli BL21 (DE3), purified (Ni-NTA, gel filtration Superdex 75)
Question: Which Kd does the source give for B1 here?
Answer: 85 ± 30 nM

Source: article PMC8353491, “An “up” oriented methionine-aromatic structural motif in SUMO is critical for its stability and activity” (The Journal of Biological Chemistry, 2021)
